Data from US20250134888A1, “INHIBITORS OF MALIC ENZYME 1” (Cornell University, priority 2022, published 2025).
Where two headings read alike, the source gives them in different places. For some assays here: The name of at least one read-out is uncertain. Some entries share one result that the patent states for a list of compounds.

Columns and labels:
ME1 [1] = target: T1, ME1 (Homo sapiens, UniProt P48163); assay: Inhibition of ME1; format: biochemical; conditions: read-out: ME1 IC50/EC50
T1 sequence (P48163 1-572): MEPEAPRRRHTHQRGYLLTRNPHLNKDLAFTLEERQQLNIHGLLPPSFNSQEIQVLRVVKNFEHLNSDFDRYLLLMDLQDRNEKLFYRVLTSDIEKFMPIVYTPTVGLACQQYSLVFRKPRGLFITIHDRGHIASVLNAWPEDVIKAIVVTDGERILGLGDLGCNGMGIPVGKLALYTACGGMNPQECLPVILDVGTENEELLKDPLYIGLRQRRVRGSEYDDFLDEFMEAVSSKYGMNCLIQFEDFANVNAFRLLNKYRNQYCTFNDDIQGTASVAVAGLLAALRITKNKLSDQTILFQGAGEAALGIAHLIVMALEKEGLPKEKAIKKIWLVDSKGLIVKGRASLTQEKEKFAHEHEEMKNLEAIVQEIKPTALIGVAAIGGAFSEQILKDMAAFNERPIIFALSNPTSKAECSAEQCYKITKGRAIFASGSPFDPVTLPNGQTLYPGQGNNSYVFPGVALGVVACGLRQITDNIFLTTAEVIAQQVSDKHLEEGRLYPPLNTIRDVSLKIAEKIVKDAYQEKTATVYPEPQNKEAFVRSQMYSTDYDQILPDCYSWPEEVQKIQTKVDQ

ME1 [2] = target: T1, ME1; assay: Site of ME1 inhibition (allosteric site or active site); format: biochemical; conditions: FIGS. 9 and 10; active site = malate competitive

| SMILES | IC50 (ME1 [1]; Table 2) | site of ME1 inhibition (ME1 [2]) | IC50 (ME1 [1]; Table 1) |
| --- | --- | --- | --- |
| Cc1cc(=O)c(O)c(CN2CC=C(c3ccc(F)cc3)CC2)n1C [Compound 7] | 7400 nM | active site ME1 inhibitors | – |
| CCN1CCC(C(=O)Nc2cccc(-c3nnc4ccc(N5CCC(C)CC5)nn34)c2)CC1 [Compound 2] | – | allosteric site ME1 inhibitors | 10 nM |
| Cc1cc(=O)c(O)cn1CCN1CCCc2ccccc21 [Compound 5] | 4100 nM | active site ME1 inhibitors | – |
| Cc1cc(=O)c(O)cn1CCCc1ccc(Cl)cc1 [Compound 6] | 1800 nM | active site ME1 inhibitors | – |
| CC1CCN(c2ccc3nnc(-c4cccc(CN(C)C)c4)n3n2)CC1 [Compound 1] | – | allosteric site ME1 inhibitors | 80 nM |

The next lines start with the values.

| IC50 (ME1 [1]; Table 2) | site of ME1 inhibition (ME1 [2]) | IC50 (ME1 [1]; Table 1) | SMILES |
| --- | --- | --- | --- |
| – | allosteric site ME1 inhibitors | 580 nM | Cc1nn(-c2ccc(Cl)cc2)c2ncc(C(=O)NC3CCN(C)CC3)cc12 [Compound 4] |
| – | allosteric site ME1 inhibitors | 110 nM | CC1CCN(c2nc3c(c(N4CCc5n[nH]cc5C4)n2)CS(=O)(=O)C3)CC1 [Compound 3] |
